Out of some 48,000 compounds screened, about 450 (0.94%) were called active. Another 19% or so got no clear call; they are omitted. Calls come from the whole dose curve; as a rule, active = well fitted inhibition curve with a large enough effect; inconclusive = small, poorly fitted or top-dose-only effect; inactive = no such curve, though single readings can be large or run the other way. This is one part of the list.

This test is described as follows: Primary qHTS for Identification of Small Molecule Inhibitors of Huntingtin Promoter Activity. Note: nearly all actives have a fitted effect of over 50% in size. The settings on record: HEK293 HTT promoter firefly luciferase reporter (activity 0% = vehicle and -100% = no light), 24 h; series mostly up to 57.5 µM; activity change, negative = inhibition: at the top concentration. The gist of the method:
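Quantitative HTS used concentration series of up to 57.5 uM final on HEK293 luciferase reporter cells, 24 h at 37 degrees C. Readout was Dual-Glo firefly luminescence.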
(In general: qHTS replaces the single test concentration by a dilution series.)
For the compound `CCOC(=O)c1cc(OC(=O)c2cc(OC)cc(OC)c2)n(-c2ccccc2)n1`, the “activity change, negative = inhibition” value was inactive: -3.01%.

In the case of `CCc1nonc1NC(=O)c1oc2ccc(Cl)cc2c1C`, the “activity change, negative = inhibition” value is inactive: 25.3%.

Regarding `Cc1ccc(Cl)cc1NC(=O)Cn1c(SCC(=O)NCc2ccccc2)nc2ccccc21`, the “activity change, negative = inhibition” value was inactive: -3.69%.

For `CC1=C(C(=O)OC2CCCCCC2)C(c2ccc(Cl)cc2Cl)CC(=O)N1` (stereo not drawn), the “activity change, negative = inhibition” value was inactive: -10.4%.

For the compound `COc1ccc(Cl)cc1C(=O)NCC(c1ccc(N(C)C)cc1)N1CCCC1` (stereo not drawn), the “activity change, negative = inhibition” value was inactive: 1.7%.

Turning to `CN1CCN(c2c(F)cc3c(=O)c(C(=O)O)cn(CCF)c3c2F)CC1`, the activity change, negative = inhibition result is “inactive”.

Regarding `O=C(Cn1c(-c2cccs2)cc2cc(Cl)ccc21)N1CCCCC1`, the “activity change, negative = inhibition” value is inactive: -19.6%.

Take `C[N+](C)(C)CC[N+]1(C)Cc2c(Cl)c(Cl)c(Cl)c(Cl)c2C1`: the “activity change, negative = inhibition” value was inactive: 11.2%.

In the case of `Cc1ccc(C)c(NC(=O)Cn2c(=O)n(CCCS(=O)(=O)C3CCCCC3)c(=O)c3ccccc32)c1`, the “activity change, negative = inhibition” value was inactive: -11.9%.

On to `Cc1ccc(-c2ccc(CCC(=O)O)n2-c2ccc(C)c(Cl)c2)cc1`, for which the “activity change, negative = inhibition” value was inactive: 35.8%.

As to `Fc1ccc(-c2nnn3c2nc(NCc2ccccc2)c2ccccc23)cc1`, the “activity change, negative = inhibition” value was inactive: -8.01%.

Consider `CCOc1cc(C(=O)Nc2ccc(-c3nnc4n3CCCCC4)cc2)cc(OCC)c1OCC`, for which the “activity change, negative = inhibition” value is inactive: 4.68%.

Regarding `Cn1c(=O)n(C)c2cc(N3CCOCC3)c(NS(=O)(=O)c3ccc(F)cc3)cc21`, the “activity change, negative = inhibition” value was inactive: 1.21%.

As to `Cc1ccc2nc(/C(C#N)=C/c3ccc(-c4ccc(C(=O)OC(C)C)cc4)o3)[nH]c2c1`, the “activity change, negative = inhibition” value is inactive: -12.4%.

Consider `Cc1ccc2c(c1)c1c(c(=O)n(-c3ccccc3)c(=O)n1CC(=O)c1ccc(Cl)cc1)n2C`, for which the “activity change, negative = inhibition” value is inactive: -14.9%.

On to `CCOc1ccc(NC(=O)CSc2nccn2C2CCCC2)cc1`, for which the “activity change, negative = inhibition” value was inactive: -13.2%.

With `COC(=O)c1cccc(CN2C(=O)SC(Nc3ccccc3C)C2=O)c1` (stereo not drawn), the “activity change, negative = inhibition” value is inactive: -14.2%.

Take `COc1ccc(-n2c(=O)c3c4c(sc3n(CC(=O)C(C)(C)C)c2=O)CCCC4)c(OC)c1`: the “activity change, negative = inhibition” value was inactive: -3.37%.

Turning to `O=C(Cn1nnc(-c2cccc(C(F)(F)F)c2)n1)NCc1ccc(F)cc1`, the “activity change, negative = inhibition” value was inactive: -11.7%.

As to `CCc1ccc(CNC(=O)c2cc3cc4ccc(OC)cc4nc3o2)cc1`, the “activity change, negative = inhibition” value is inactive: -1.12%.

As to `Cc1c(C(=O)Oc2ccc(Br)cc2)sc2ncn(Cc3ccccc3F)c(=O)c12`, the activity change, negative = inhibition is inactive: -7.52% [at 11.5 µM].

As to `Cc1ccc(NC(=O)C(=O)NCC(c2ccc3c(c2)OCO3)N2CCN(C)CC2)cc1C` (stereo not drawn), the “activity change, negative = inhibition” value is inactive: -13.2%.

On to `CCN(CC)S(=O)(=O)c1ccc2c(c1)c(=O)c(C(=O)N1CCN(c3ccccc3OC)CC1)cn2C`, for which the “activity change, negative = inhibition” value is inactive: -2.94%.

As for `COc1cc(NC(=O)Nc2c[nH]c(=O)[nH]c2=O)cc(OC)c1OC`, the “activity change, negative = inhibition” value was inactive: 11.3%.

`CC(C)CCNC(=O)Cn1cc(S(=O)(=O)Cc2ccc(F)cc2)c2ccccc21`: the “activity change, negative = inhibition” value is inactive: -28.3%.

As to `CCCCOc1ccc(S(=O)(=O)n2nc(C)c(S(=O)(=O)N3CCCCCC3)c2C)cc1`, the “activity change, negative = inhibition” value was inactive: -5.36%.

As to `O=C(NCCCN1CCN(c2ccccc2F)CC1)c1sc2ncccc2c1-n1cccc1`, the “activity change, negative = inhibition” value was inactive: -20.5%.

As for `CCCC(=O)OC1=C(C(C)=O)N(Cc2ccccc2)S(=O)(=O)c2ccccc21`, the “activity change, negative = inhibition” value was inactive: -38.2%.

With `O=C(CCS(=O)(=O)c1cc2c(cc1Cl)NC(=O)CO2)NCc1ccccc1`, the “activity change, negative = inhibition” value is inactive: -5.38%.

Consider `Cn1cc(S(=O)(=O)c2ccccc2)c(=O)c2cc(F)c(N3CCCC3)cc21`, for which the “activity change, negative = inhibition” value is inactive: -2.82%.

On to `NNc1nncc2ccccc12`, for which the activity change, negative = inhibition result is “inactive”.

For the compound `CC(=O)OCC(CCn1cnc2cnc(N)nc21)COC(C)=O`, the activity change, negative = inhibition entry is “inactive”.

Turning to `COc1ccc(CCNC(=O)c2cc3c(=O)n4ccccc4nc3n2C)cc1`, the “activity change, negative = inhibition” value was inactive: 6.95%.

Turning to `COc1ccc(NC(=O)Cn2cc(S(=O)(=O)c3ccccc3)c(=O)c3cc(C)ccc32)cc1Cl`, the “activity change, negative = inhibition” value is inactive: -5.03%.

On to `COc1cccc(N2CCN(C(=O)c3ccc4c(Cl)c5c(nc4c3)CCCC5)CC2)c1`, for which the “activity change, negative = inhibition” value is inactive: 0.557%.

`C[C@H](CN1CCCC1)C(=O)c1ccc(C(F)(F)F)cc1`: the “activity change, negative = inhibition” value is inactive: -3.91%.

Take `CCC(=O)N1CCc2cc(Br)cc(S(=O)(=O)N3CCC(C(=O)Nc4cccc(C)c4)CC3)c21`: the “activity change, negative = inhibition” value was inactive: -19.3%.

Consider `CCC(Cn1nnc2ccccc2c1=O)NC(=O)Nc1cc(OC)cc(OC)c1` (stereo not drawn), for which the “activity change, negative = inhibition” value was inactive: -4.66%.

`Cc1cc2c(cc3c(SCc4cccc(Cl)c4)nnc(C)n32)o1`: the “activity change, negative = inhibition” value was inactive: 9.64%.

For `O=c1c2cccnc2n(Cc2ccc(Cl)cc2)c(=O)n1Cc1ccc(F)cc1`, the “activity change, negative = inhibition” value is inactive: 7.86%.

Take `CNC(=O)c1cccc(-n2c(C)nc3cccnc32)c1C`: the “activity change, negative = inhibition” value was inactive: 2.64%.

Take `CC(=O)c1ccc(NC(=O)CSc2nc3c(=O)n(C)c(=O)n(C)c3n2C)cc1`: the “activity change, negative = inhibition” value was inactive: 5.59%.

Regarding `CCCSc1nnc(NC(=O)Cc2coc3cc(C)ccc23)s1`, the “activity change, negative = inhibition” value is inactive: -12.5%.

For `CC(=O)Nc1ccc(S(=O)(=O)N2CCN(c3ccc(C)c(C)c3)CC2)cc1`, the “activity change, negative = inhibition” value is inactive: -28.6%.

As for `Cc1cc(N2CCN(C)CC2)nc2ccc(NC(=O)c3ccccc3F)cc12`, the “activity change, negative = inhibition” value is inactive: 51.4%.

As to `Cc1cccc(NC(=O)Nc2ccc(C)c(C)c2)n1`, the “activity change, negative = inhibition” value was inactive: 67.8%.

Turning to `Cc1cc(OCC(=O)Nc2ccc(C(=O)OC3CCCCC3)cc2)ccc1Cl`, the “activity change, negative = inhibition” value was inactive: 2.73%.

Take `CNC(=O)C1CCC(Cn2c(=O)c3sccc3n(CC(=O)Nc3cc(C)cc(C)c3)c2=O)CC1` (stereo not drawn): the “activity change, negative = inhibition” value is inactive: -11.6%.

The record behind these values is PubChem BioAssay AID1508623 (National Center for Advancing Translational Sciences (NCATS), 2021).
